Here are results for 110 compounds from PubChem BioAssay AID488969 (Vanderbilt High Throughput Screening Facility, 2010).

Over roughly 110,000 compounds, “z-score” has its median near -0.1; the highest 2% begin near 2. The list shows a part of the results. The source made the active and inactive calls.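 How the source made its calls: active means z-score in the third read window above 3 or below -3; inactive means the rest.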

The target of the test is Metabotropic glutamate receptor 8 (Rattus norvegicus) (UniProt P70579). Kind of test: mGluR8 Gi/Go-coupled signaling modulation – cell-based, rat, thallium flux, HTS, primary screen (AID 488969). Particulars: HEK293 rat mGluR8, GIRK (G protein-gated inwardly rectifying potassium channel) thallium flux, FluoZin2; at 10 µM; stronger effect = higher value; submaximal glutamate (EC20) added with thallium.
UniProt P70579, sequence (P70579 whole entry, looked up): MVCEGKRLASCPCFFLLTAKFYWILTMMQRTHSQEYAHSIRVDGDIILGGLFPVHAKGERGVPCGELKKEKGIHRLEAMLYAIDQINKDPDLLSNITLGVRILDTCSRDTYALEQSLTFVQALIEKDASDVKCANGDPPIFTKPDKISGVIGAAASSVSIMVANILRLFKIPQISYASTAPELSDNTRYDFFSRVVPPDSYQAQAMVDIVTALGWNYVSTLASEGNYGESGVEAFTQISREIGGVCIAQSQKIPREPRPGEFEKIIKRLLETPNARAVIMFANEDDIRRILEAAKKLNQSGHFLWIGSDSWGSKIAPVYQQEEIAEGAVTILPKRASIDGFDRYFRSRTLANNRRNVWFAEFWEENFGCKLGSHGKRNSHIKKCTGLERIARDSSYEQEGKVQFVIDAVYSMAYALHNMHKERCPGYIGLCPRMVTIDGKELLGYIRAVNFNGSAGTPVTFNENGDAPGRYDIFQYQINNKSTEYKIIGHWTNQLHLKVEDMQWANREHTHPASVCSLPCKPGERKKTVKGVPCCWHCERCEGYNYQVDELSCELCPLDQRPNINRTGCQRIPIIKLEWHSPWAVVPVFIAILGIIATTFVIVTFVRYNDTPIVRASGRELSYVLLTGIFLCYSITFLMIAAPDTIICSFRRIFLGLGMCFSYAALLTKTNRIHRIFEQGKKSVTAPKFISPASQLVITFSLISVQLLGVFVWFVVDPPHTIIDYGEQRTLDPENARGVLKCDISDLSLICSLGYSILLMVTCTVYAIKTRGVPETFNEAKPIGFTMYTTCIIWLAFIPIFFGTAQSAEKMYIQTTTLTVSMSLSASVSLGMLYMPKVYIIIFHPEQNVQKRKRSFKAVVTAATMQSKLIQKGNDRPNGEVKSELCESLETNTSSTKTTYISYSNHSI
With `COc1ccccc1N(CC(=O)Nc1cccnc1)S(C)(=O)=O`, the z-score was -0.573.
For the compound `CCC(=O)N1CCc2cc(S(=O)(=O)CCC(=O)NCCc3ccccc3)ccc21`, the z-score is -0.24.
Regarding `c1ccc(-n2ncc3c(NCCN4CCCCC4)ncnc32)cc1`, the z-score stood at 0.62.
Take `O=C(COC(=O)c1cc(S(=O)(=O)N2CCOCC2)ccc1F)c1ccc[nH]1`: the z-score was -0.281.
For the compound `CCn1c(SCC(=O)OCc2ccccc2)nnc1-c1ccco1`, the z-score was -1.54.
Next, `CCOP(=O)(c1ccccc1)C1(O)CCCCC1` (stereo not given): 0.442; `O=C(CSCc1cnn(-c2ccccc2)c1-n1cccc1)N1CCN(Cc2ccccc2)CC1`: -0.143; `COc1ccc(-c2nn(-c3ccccc3)cc2C(=O)O)cc1OC`: 0.191.
For the compound `O=C(C1CC1)N1CCc2cc(S(=O)(=O)NC3CCN(Cc4ccccc4)CC3)ccc21`, the z-score is -0.243.
For `COc1ccc(C(C)=O)cc1CSc1nnc(Nc2ccc(C)cc2C)s1`, the z-score is -0.00598.
Next, `CCOc1ccc2cc(S(=O)(=O)N3CCN(C)CC3)ccc2c1`: 0.586; `CSCCC(CO)NC(=O)OCc1ccccc1` (stereo not given): -0.173; `Cc1cccc2c1nc(-c1ccccc1)n1cnnc21`: active: -3.97.
For the compound `Cc1ccc(NS(=O)(=O)c2cc(C(=O)NCc3ccccn3)ccc2Cl)cc1C`, the z-score is -0.261.
In the case of `Cc1nc(NC(=O)COc2ccccc2)sc1C(=O)Nc1ccccc1`, the z-score is -0.075.
As to `Cc1ccc(Nc2c(-c3ccc(C)o3)nc3cnccn23)cc1`, the z-score worked out at 2.11.
`O=C(c1ccccn1)N(Cc1ccco1)C1(C(=O)NC2CCCCC2)CCCCC1` gave a z-score of 0.227.
Next, `COCCN1C(=O)C(=O)/C(=C(/O)c2cccc(OC)c2)C1c1ccncc1` (stereo not given): 0.382; `Brc1ccc(Oc2nsnc2N2CCOCC2)cc1`: -0.407; `COc1cccc(CNC(=O)C2CCC(CNS(=O)(=O)c3cccc4nsnc34)CC2)c1` (stereo not given): -0.0786.
`CCn1c(NCc2ccccn2)nc2c1c(=O)n(C)c(=O)n2C` yielded a z-score of 0.144.
`O=C(Nc1ccc2c(c1)Cc1ccccc1-2)c1ccco1`: the z-score was 1.23.
In turn, `CCOC(=O)Cc1c(C)nc2cc(-c3ccc(C)cc3)[nH]n2c1=O` gave a z-score of 0.0804.
As to `CCOc1cc2[nH]c(=S)n(Cc3ccc(C(=O)NCCOC)cc3)c(=O)c2cc1OCC`, the z-score is -0.495.
In the case of `CCNC(=O)c1ccc(-n2nc(C(F)(F)F)c3c2CCCC3)cc1` it was 0.0724; in that of `O=C(Oc1c(Cl)cc(Cl)c2cccnc12)N1CCOCC1`, -0.0144.
`COc1ccc(NC(=O)CSc2ncnc3c2cnn3Cc2ccccc2)cc1OC` registered a z-score of 0.253.
Consider `CC(C)N(C(=O)CN1C(=O)NC2(CCCCCC2)C1=O)C(C)C`, for which the z-score was -0.0714.
The compound `CC1CCCN(CCOc2ccc(Br)cc2)C1` (stereo not given) displayed a z-score of 0.0919.
In the case of `COc1cc(C(=O)OCC(=O)NCc2ccc(F)cc2)cc(NC(=O)c2cccs2)c1OC` it was 0.786.
As to `Cc1nn(-c2ccccc2)c2sc(C(=O)OC3CCOC3=O)cc12` (stereo not given), the z-score was -0.284.
In the case of `Cc1cc2c(n1-c1ccc(Cl)cc1)CC(C)(C)CC2=O`, the z-score is -1.28.
Next, `CC(C(=O)N1CCCc2ccccc21)N1CCN(S(=O)(=O)c2ccccc2F)CC1` (stereo not given): -0.0602; `COc1ccc(OCCN2C(=O)NC3(CCc4ccccc4C3)C2=O)cc1` (stereo not given): 0.153.
For the compound `CS(=O)(=O)N(Cc1ccc(Cl)cc1)c1ccc(C(=O)N2CCN(c3ccccc3)CC2)cc1`, the z-score was -0.563.
In the case of `CCCC(=O)Nc1ccccc1NC(=O)CN(C)S(=O)(=O)c1ccc(C)cc1` it was 0.121; in that of `O=c1oc2c3c4c(cc2c(C(F)(F)F)c1CCN1CCOCC1)CCCN4CCC3`, -0.0494.
As for `CC(C)CC1C(C#N)=C(N)Oc2n[nH]c(-c3cccs3)c21` (stereo not given), the z-score is -2.24.
Regarding `CCc1nnc(NC(=O)CSc2ncc(-c3ccccc3)[nH]2)s1`, the z-score was 0.0205.
With `COc1ccc(C(=O)/C=C/c2cn(CC(O)CN3CCOCC3)c3ccccc23)cc1` (stereo not given), the z-score was -0.177.
In the case of `O=C(Cn1cc(/C=N/O)c2ccccc21)N1CCOCC1` it was -0.312; in that of `N#C/C(=C\c1c(N2CCCCC2)nc2ccccn2c1=O)C(=O)NCc1ccco1`, -0.855; in that of `COc1ccc2o/c(=N\O)c(C(=O)Nc3ccccc3OC)cc2c1`, -0.0136.
`N#Cc1c(N2CCCCC2)nc(N2CCCCC2)c2c1CCN(Cc1ccccc1)C2` returned a z-score of 0.139.
As to `O=C(Oc1ccccc1Cl)c1ccc(-n2cncn2)nc1`, the z-score is -0.0109.
For `Cc1ccc(C(=O)NC(N2CCCC2)C(Cl)(Cl)Cl)cc1` (stereo not given), the z-score is -0.364.
Next, `COc1ccc2c(c1)C(NC(=O)C(F)(F)F)CC2=O` (stereo not given): 0.142; `CCOC(=O)CCCOC(=O)c1ccc(S(=O)(=O)N(C)C)cc1`: 0.718; `O=C(CSc1nnc(-c2cccnc2)n1-c1ccccc1)Nc1ccccc1`: -0.368.
With `CC(C)Sc1nc2c(c(=O)[nH]1)C(c1cccs1)C1=C(CC(C)(C)CC1=O)N2` (stereo not given), the z-score is active: -3.58.
Consider `CC(C)=CCCC1=CCC(/C=N/NC(N)=O)C(C)C1` (stereo not given), for which the z-score was -0.318.
`COc1ccc(Br)cc1S(=O)(=O)NCc1ccccc1`: the z-score was -0.34.
Next, `CCOC(=O)C1=C(C)NC(C)=C(C(=O)OCC)C1c1cn(-c2ccccc2)nc1-c1ccco1`: 0.105; `CCOC(=O)N1CCN(c2ccc(C(=O)CC)cc2F)CC1`: -0.508.
Next, `Cc1cccc(C)c1NC(=O)c1ccc(CN2CCc3ccccc3C2)cc1`: -0.199.
In the case of `O=C(CSc1nc2ccccc2c(=O)n1-c1ccc(F)cc1)Nc1cc(S(=O)(=O)N2CCOCC2)ccc1Cl` it was -0.134.
As for `CCOC(=O)c1ccc(NC(=O)Cn2nnc3ccccc32)cc1`, the z-score came to 0.966.
Take `COc1ccc(Cl)cc1C(=O)NCc1cn(C)nc1C`: the z-score was -0.575.
As for `CC(C)CC(=O)Nc1ccccc1-c1nnn(CC(=O)N2CCc3ccccc3C2)n1`, the z-score is active: -3.36.
`Cc1ccccc1OCC(=O)OC(C(=O)c1ccccc1)c1ccccc1` (stereo not given) had a z-score of 0.144.
`CC1(C)CC(=NOC(=O)c2ccccc2)CC(C)(C)N1O`: the z-score was -0.193.
In the case of `O=P(c1ccc2c(c1)OCCO2)(N1CCOCC1)N1CCOCC1` it was 0.00292; in that of `COc1cccc(/C=N/NC(=O)CN(C2=NS(=O)(=O)c3ccccc32)c2ccccc2)c1`, -0.0121.
In turn, `CCCN(CCC)S(=O)(=O)c1ccc(C(=O)Nc2nnc(CSC)o2)cc1` showed a z-score of 0.35.
For the compound `CS(=O)(=O)N(CC(=O)NCCc1ccccc1)C1CCCCC1`, the z-score was -0.172.
Next, `O=S(=O)(NCCCc1ccccc1)c1ccccc1`: -0.201; `COc1ccc2[nH]c3c(=O)n(Cc4ccco4)cnc3c2c1`: -0.0334.
`CCOc1ccc(Oc2cc(NC(=O)c3ccco3)cc([N+](=O)[O-])c2)cc1`: the z-score is -0.289.
In the case of `Fc1ccc(OCCCCCN2CCCC2)cc1` it was -0.494; in that of `CCOC(=O)C1(S(=O)(=O)c2ccccc2)CCN(Cc2ccccc2)CC1`, -0.78.
Turning to `COc1ccc(NC(=S)Nc2ccc(F)cc2)c(OC)c1`, the z-score is -0.0593.
In the case of `CC1CCN(c2nc(-c3ccccc3O)nc3ccccc23)CC1` it was -0.417.
For the compound `Cc1ccc(/C=N/NC(=O)c2cc(C)oc2C)o1`, the z-score was -0.624.
Consider `O=C(Cc1cnn(-c2ccccc2)c1)c1ccc(O)c(O)c1O`, for which the z-score is 0.0853.
Next, `COC(=O)c1[nH]c2cccc(OC)c2c1NC(=O)CN(C)CC1OCCO1`: 0.102.
Take `CN(C)S(=O)(=O)c1cc(NC(=O)COC(=O)Cc2cccc3ccccc23)ccc1Cl`: the z-score is 0.00257.
Next, `Cc1nnc(NC(=O)CC(NC(=O)C(F)(F)F)c2ccccc2)s1` (stereo not given): -0.436; `CCC(/C=N/NC(=O)C1COc2ccccc2O1)CC` (stereo not given): 1.68; `Cc1cc(F)ccc1NCC(=O)Nc1ccccc1Br`: 1.92.
Take `Cc1ccc(C(=O)NC2c3ccccc3-c3ccccc32)cc1`: the z-score was -0.548.
As for `O=C(NCCc1ccccc1)c1ccncc1`, the z-score was 0.547.
`O=C(CSc1nc2ccccc2n1CC(=O)N1CCCC1)Nc1nccs1` displayed a z-score of 0.452.
For the compound `COc1ccc(S(=O)(=O)N2CCC(C(=O)NCCc3ccccc3)CC2)cc1OC`, the z-score is -0.189.
For the compound `CCN(CC)S(=O)(=O)c1ccc(C(=O)OCCNC(=O)c2cccnc2)cc1`, the z-score is -0.485.
`C/C(=N\NC(=O)c1ccc(C)cc1)C1C(=O)c2ccccc2C1=O` gave a z-score of 1.69.
Consider `Cc1nc2c3ccccc3n(CC#N)c(=O)n2n1`, for which the z-score is -0.0267.
In the case of `COc1ccc(S(=O)(=O)N(C(C)=O)c2ccc3oc(=O)sc3c2)cc1`, the z-score is -0.103.
With `CCC(CC)NC(=O)Cc1ccc(S(=O)(=O)N2CCOCC2)s1`, the z-score was -0.187.
The compound `O=C(CN1C2CCC1CC(NC(=O)Nc1ccccc1)C2)NCc1ccco1` (stereo not given) showed a z-score of 0.243.
For `CCCN1Cc2cccc(C(=O)N3CCN(c4cc(Cl)ccc4C)CC3)c2C1=O`, the z-score is 1.1.
In the case of `O=C1/C(=C/c2ccccc2)CCCc2ccccc21`, the z-score was -0.145.
`Fc1cccc(NC(=S)N2CCCCC2)c1` had a z-score of 0.0996.
In the case of `O=C(c1ccccc1Cl)N(C(=O)c1ccccc1Cl)c1nccc(-c2cccs2)n1` it was -0.121; in that of `Cc1cc(C)cc(OCCCC(=O)O)c1`, -0.302; in that of `O=C(COc1ccc2ccccc2c1)NCCn1ccc2ccccc21`, -0.31.
In the case of `Cc1nc(NC(=O)C2CC2)sc1C(=O)N(C)C`, the z-score is -0.405.
`CCOc1cc(C2NC(=O)NC(O)(C(F)(F)F)C2C(=O)c2ccc(Cl)cc2)ccc1O` (stereo not given): the z-score stood at 0.149.
Regarding `Fc1ccc2nc(Nc3nc4cc5c(cc4s3)OCCO5)sc2c1`, the z-score was -0.101.
Compound `COc1ccc(CCNC(=O)C(C(=O)c2ccccc2)n2cc(Cl)ccc2=O)cc1OC` (stereo not given) showed a z-score of 0.409.
For `COCCCN1C(=O)C(=O)/C(=C(/O)c2ccc(OCC(C)C)cc2C)C1c1cccnc1` (stereo not given), the z-score was -0.0415.
`COc1ccc(NC(=O)C2CCC(CNc3c(N4CCCCC4)c(=O)c3=O)CC2)cc1OC` (stereo not given): the z-score was -0.375.
For `CCn1nccc1C(=O)Nc1nccs1`, the z-score amounted to 0.146.
For `O=C1Nc2ccccc2CCC1Sc1nnc(-c2ccc(Cl)cc2)s1` (stereo not given), the z-score was -0.107.
Consider `COc1cc(/C=C/C(=O)OCC(=O)NCc2ccco2)cc(OC)c1OC`, for which the z-score was -0.291.
Regarding `COc1ccc(S(=O)(=O)N2CCCCCC2)cc1C(=O)OCC(=O)NCC(C)C`, the z-score was -0.098.
In turn, `CCOC(=O)N1CCN(C(=O)C(NS(=O)(=O)c2cccc3nsnc23)c2ccccc2)CC1` (stereo not given) yielded a z-score of 0.727.
Next, `Cn1c(SCC(=O)N2CCN(c3cccc(Cl)c3)CC2)nnc1-c1ccncc1`: -0.394.
Turning to `CN(C(=O)C12CC3CC(CC(C3)C1)C2)C1CCS(=O)(=O)C1` (stereo not given), the z-score is -0.0122.
Consider `COc1cc2c(cc1OC)C(c1cccc([N+](=O)[O-])c1)N(C(=O)c1ccc(F)cc1)CC2` (stereo not given), for which the z-score was -1.34.
Consider `CC(C)(C)NC(=O)C(c1ccco1)N(Cc1ccc(F)cc1)C(=O)c1snc(C(N)=O)c1N` (stereo not given), for which the z-score is -0.414.
